{"source": "patent US9340590B2", "about": "(priority 2011, dated 2016)", "key": {"hNav1.3": {"molecular_target": "hNav1.3 (Homo sapiens, UniProt Q9NY46)", "sequence (Q9NY46 whole entry, looked up)": "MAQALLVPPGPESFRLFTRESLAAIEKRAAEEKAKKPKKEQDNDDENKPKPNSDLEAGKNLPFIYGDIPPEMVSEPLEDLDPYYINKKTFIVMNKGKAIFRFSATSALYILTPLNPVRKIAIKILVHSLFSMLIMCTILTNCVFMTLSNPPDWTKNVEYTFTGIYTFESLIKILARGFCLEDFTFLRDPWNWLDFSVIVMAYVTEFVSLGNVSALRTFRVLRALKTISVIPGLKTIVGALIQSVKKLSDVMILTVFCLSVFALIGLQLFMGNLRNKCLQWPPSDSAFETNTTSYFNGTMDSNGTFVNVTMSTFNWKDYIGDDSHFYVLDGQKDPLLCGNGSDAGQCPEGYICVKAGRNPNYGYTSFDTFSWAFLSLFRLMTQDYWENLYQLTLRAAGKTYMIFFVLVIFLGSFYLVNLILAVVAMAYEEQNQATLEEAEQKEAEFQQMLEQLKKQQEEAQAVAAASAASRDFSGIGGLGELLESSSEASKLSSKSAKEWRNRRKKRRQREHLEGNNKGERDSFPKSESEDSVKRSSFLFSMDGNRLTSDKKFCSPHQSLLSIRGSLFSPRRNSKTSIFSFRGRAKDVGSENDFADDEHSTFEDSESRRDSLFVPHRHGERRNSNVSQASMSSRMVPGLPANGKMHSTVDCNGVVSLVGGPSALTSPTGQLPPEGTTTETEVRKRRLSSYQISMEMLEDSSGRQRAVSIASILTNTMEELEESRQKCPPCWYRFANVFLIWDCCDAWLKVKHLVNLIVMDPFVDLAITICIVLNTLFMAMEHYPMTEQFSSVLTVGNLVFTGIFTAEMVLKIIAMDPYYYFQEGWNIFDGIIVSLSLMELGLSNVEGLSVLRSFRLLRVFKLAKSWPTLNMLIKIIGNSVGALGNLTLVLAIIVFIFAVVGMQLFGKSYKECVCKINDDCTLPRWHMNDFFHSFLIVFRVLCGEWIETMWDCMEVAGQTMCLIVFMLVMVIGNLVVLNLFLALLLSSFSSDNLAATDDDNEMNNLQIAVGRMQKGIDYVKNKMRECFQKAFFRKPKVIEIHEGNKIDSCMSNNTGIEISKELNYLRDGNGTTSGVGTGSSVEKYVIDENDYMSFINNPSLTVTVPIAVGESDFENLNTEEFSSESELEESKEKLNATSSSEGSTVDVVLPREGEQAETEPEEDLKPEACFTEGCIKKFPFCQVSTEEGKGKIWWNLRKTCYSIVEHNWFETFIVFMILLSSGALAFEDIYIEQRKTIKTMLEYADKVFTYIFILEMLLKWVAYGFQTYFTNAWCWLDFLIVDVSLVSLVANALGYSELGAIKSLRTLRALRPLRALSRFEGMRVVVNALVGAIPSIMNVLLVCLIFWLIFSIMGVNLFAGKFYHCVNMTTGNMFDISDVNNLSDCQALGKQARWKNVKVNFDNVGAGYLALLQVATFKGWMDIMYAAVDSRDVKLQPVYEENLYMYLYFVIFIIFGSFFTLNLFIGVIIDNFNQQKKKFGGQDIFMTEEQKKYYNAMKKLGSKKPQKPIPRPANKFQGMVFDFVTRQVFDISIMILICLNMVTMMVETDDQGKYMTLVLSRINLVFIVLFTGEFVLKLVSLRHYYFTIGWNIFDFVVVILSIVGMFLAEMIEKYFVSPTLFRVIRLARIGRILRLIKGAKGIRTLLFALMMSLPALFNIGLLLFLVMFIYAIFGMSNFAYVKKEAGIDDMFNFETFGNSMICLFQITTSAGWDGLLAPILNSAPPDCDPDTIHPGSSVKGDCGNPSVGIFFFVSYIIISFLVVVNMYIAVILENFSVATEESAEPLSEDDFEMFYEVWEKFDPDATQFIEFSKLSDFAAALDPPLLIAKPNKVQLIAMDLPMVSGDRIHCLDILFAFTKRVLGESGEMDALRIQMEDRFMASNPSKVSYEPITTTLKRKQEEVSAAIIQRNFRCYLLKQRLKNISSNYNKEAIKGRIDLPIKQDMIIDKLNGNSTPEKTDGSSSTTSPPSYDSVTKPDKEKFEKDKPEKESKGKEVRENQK", "assay_type": "cell-based", "details": "ratio of IWQ Use values"}, "hNav1.7": {"molecular_target": "hNav1.7 (Homo sapiens, UniProt Q15858)", "sequence (Q15858 whole entry, looked up)": "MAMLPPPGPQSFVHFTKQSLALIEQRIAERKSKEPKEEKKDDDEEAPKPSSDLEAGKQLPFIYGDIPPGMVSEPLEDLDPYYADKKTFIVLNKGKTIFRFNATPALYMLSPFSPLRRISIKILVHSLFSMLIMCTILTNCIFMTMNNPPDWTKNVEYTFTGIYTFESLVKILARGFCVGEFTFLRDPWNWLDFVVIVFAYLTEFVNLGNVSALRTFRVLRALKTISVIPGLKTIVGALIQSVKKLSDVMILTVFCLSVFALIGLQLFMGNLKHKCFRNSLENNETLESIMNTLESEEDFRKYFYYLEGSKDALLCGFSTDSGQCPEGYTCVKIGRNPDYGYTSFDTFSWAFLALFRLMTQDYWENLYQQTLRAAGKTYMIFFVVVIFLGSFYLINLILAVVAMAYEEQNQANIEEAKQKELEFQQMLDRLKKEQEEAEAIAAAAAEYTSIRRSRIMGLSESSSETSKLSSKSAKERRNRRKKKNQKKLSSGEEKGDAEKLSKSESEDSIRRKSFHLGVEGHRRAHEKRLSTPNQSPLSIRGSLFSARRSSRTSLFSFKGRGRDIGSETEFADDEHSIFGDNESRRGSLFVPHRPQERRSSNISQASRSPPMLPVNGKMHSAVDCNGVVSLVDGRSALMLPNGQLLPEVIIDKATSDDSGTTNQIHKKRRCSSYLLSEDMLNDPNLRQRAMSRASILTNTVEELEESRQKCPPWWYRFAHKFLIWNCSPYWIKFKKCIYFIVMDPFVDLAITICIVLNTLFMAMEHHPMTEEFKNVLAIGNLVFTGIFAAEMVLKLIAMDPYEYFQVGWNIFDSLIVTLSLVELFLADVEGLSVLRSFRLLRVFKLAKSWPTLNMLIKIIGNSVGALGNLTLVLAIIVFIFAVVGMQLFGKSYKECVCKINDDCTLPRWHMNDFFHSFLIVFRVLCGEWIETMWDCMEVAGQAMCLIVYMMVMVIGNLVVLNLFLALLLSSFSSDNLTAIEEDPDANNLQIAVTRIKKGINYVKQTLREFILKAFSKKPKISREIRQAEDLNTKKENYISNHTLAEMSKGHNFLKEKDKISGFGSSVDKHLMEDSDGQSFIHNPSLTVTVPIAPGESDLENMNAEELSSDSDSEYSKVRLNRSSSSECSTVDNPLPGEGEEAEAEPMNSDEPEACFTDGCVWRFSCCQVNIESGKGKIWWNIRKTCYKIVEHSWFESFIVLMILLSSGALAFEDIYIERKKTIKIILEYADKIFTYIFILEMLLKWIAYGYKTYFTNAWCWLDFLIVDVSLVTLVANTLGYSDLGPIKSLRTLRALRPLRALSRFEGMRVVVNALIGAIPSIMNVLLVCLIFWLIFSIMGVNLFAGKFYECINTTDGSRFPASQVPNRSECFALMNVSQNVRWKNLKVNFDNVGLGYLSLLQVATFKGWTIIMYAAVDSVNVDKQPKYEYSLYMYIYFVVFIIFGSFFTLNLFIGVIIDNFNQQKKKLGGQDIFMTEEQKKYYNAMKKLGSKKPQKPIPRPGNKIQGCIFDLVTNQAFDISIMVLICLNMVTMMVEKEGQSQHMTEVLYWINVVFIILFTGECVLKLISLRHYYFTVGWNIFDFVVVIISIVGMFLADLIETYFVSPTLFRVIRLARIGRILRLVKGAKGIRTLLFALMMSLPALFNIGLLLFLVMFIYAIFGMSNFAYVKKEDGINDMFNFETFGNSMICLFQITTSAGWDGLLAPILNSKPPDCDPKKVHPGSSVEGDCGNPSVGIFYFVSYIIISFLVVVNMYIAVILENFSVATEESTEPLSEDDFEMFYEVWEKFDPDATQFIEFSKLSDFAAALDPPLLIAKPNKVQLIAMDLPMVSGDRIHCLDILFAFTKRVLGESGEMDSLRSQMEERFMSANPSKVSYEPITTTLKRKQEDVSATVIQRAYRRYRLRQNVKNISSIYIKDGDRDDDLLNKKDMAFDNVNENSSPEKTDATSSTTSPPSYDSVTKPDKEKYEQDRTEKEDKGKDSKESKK", "assay_type": "cell-based", "details": "ratio of IWQ Use values"}}, "note": "Read-outs that look alike come from different tables or passages of the source. Part of at least one peptide drawing is inferred or uncertain, most often the ends. Positions of bridges follow the written chain, without caps; N, C: chain ends. Residues, ends and D or L forms follow the SMILES beside them.", "data": [{"compound": "CC(C)C[C@H](NC(=O)[C@H](CCCCN)NC(=O)[C@H](Cc1ccc(O)cc1)NC(=O)[C@H](CCCCN)NC(=O)[C@@H]1CSSC[C@@H]2NC(=O)[C@H](CCCCN)NC(=O)[C@H](CC(=O)O)NC(=O)[C@H](CC(N)=O)NC(=O)[C@H](CC(=O)O)NC(=O)[C@@H]3CCCN3C(=O)[C@H](CC(=O)O)NC(=O)[C@@H]3CSSC[C@H](NC(=O)[C@H](CCCCN)NC(=O)[C@H](Cc4ccc(O)cc4)NC(=O)[C@H](CC(N)=O)NC(=O)[C@H](CCC(=O)O)NC(=O)[C@H](CSSC[C@H](NC(=O)[C@@H](N)CC(=O)O)C(=O)N[C@@H](CC(C)C)C(=O)NCC(=O)N[C@@H](Cc4c[nH]c5ccccc45)C(=O)N[C@@H](Cc4ccccc4)C(=O)N[C@@H](CCCCN)C(=O)NCC(=O)N3)NC2=O)C(=O)N[C@@H](CC(N)=O)C(=O)N[C@@H](CCCNC(=N)N)C(=O)N[C@@H](CCCNC(=N)N)C(=O)N[C@@H](CCC(=O)O)C(=O)N[C@@H](CCC(N)=O)C(=O)N[C@@H](Cc2c[nH]c3ccccc23)C(=O)N1)C(N)=O", "note": "[SEQ ID NO: 469] (H-DCLGWFKGCDPDNDKCCENYKCNRREQWCKYKL-NH2; disulfide 2-17, 9-22, 16-29)", "values": [{"measurement": "Nav1.4/Nav1.3", "setting": "hNav1.3", "value": 2.2}, {"measurement": "Nav1.7/Nav1.3", "setting": "hNav1.3", "value": 1.9}, {"measurement": "Nav1.4/Nav1.3", "setting": "hNav1.3; Nav1.4 over Nav1.3", "value": 2.2}, {"measurement": "Nav1.7/Nav1.3", "setting": "hNav1.3; Nav1.7 over Nav1.3", "value": 1.9}, {"measurement": "Nav1.4/Nav1.7", "setting": "hNav1.7", "value": 1.2}, {"measurement": "Nav1.4/Nav1.7", "setting": "hNav1.7; Nav1.4 over Nav1.7", "value": 1.2}]}, {"compound": "CC(C)C[C@@H]1NC(=O)[C@@H](NC(=O)[C@@H](N)CC(=O)O)CSSC[C@@H]2NC(=O)[C@@H]3CSSC[C@@H](C(=O)N[C@@H](CCCCN)C(=O)N[C@@H](Cc4ccc(O)cc4)C(=O)N[C@@H](CCCCN)C(=O)N[C@@H](CC(C)C)C(=O)N[C@@H](Cc4c[nH]c5ccccc45)C(=O)O)NC(=O)[C@H](Cc4c[nH]c5ccccc45)NC(=O)[C@H](CCCCN)NC(=O)[C@H](CC(=O)O)NC(=O)[C@H](CCCNC(=N)N)NC(=O)[C@H](CCCNC(=N)N)NC(=O)[C@H](CC(N)=O)NC(=O)[C@H](CSSC[C@H](NC(=O)CNC(=O)[C@H](CCCCN)NC(=O)[C@H](Cc4ccccc4)NC(=O)[C@H](Cc4c[nH]c5ccccc45)NC(=O)CNC1=O)C(=O)N[C@@H](CC(=O)O)C(=O)N1CCC[C@H]1C(=O)N[C@@H](CC(=O)O)C(=O)N[C@@H](CC(N)=O)C(=O)N[C@@H](CC(=O)O)C(=O)N[C@@H](CCCCN)C(=O)N3)NC(=O)[C@H](CCCCN)NC(=O)[C@H](Cc1ccc(O)cc1)NC(=O)[C@H](CC(N)=O)NC(=O)[C@H](CCC(=O)O)NC2=O", "note": "[SEQ ID NO: 474] (H-DCLGWFKGCDPDNDKCCENYKCNRRDKWCKYKLW-OH; disulfide 2-17, 9-22, 16-29)", "values": [{"measurement": "Nav1.4/Nav1.3", "setting": "hNav1.3", "value": 7.7}, {"measurement": "Nav1.7/Nav1.3", "setting": "hNav1.3", "value": 2.9}, {"measurement": "Nav1.4/Nav1.7", "setting": "hNav1.7", "value": 2.6}]}, {"compound": "CC(C)C[C@H](NC(=O)[C@H](CCCCN)NC(=O)[C@H](Cc1ccc(O)cc1)NC(=O)[C@H](CCCCN)NC(=O)[C@@H]1CSSC[C@@H]2NC(=O)[C@H](CCCCN)NC(=O)[C@H](CC(=O)O)NC(=O)[C@H](CC(N)=O)NC(=O)[C@H](CC(=O)O)NC(=O)[C@@H]3CCCN3C(=O)[C@H](CC(=O)O)NC(=O)[C@@H]3CSSC[C@H](NC(=O)[C@H](CCCCN)NC(=O)[C@H](Cc4ccc(O)cc4)NC(=O)CNC(=O)[C@H](CCC(=O)O)NC(=O)[C@H](CSSC[C@H](NC(=O)[C@@H](N)CC(=O)O)C(=O)N[C@@H](CC(C)C)C(=O)NCC(=O)N[C@@H](Cc4c[nH]c5ccccc45)C(=O)N[C@@H](Cc4ccccc4)C(=O)N[C@@H](CCCCN)C(=O)NCC(=O)N3)NC2=O)C(=O)N[C@@H](CC(N)=O)C(=O)N[C@@H](CCCNC(=N)N)C(=O)N[C@@H](CCCNC(=N)N)C(=O)N[C@@H](CC(=O)O)C(=O)N[C@@H](CCCCN)C(=O)N[C@@H](Cc2c[nH]c3ccccc23)C(=O)N1)C(N)=O", "note": "[SEQ ID NO: 468] (H-DCLGWFKGCDPDNDKCCEGYKCNRRDKWCKYKL-NH2; disulfide 2-17, 9-22, 16-29)", "values": [{"measurement": "Nav1.4/Nav1.3", "setting": "hNav1.3", "value": 2.1}, {"measurement": "Nav1.7/Nav1.3", "setting": "hNav1.3", "value": 1.0}, {"measurement": "Nav1.4/Nav1.3", "setting": "hNav1.3; Nav1.4 over Nav1.3", "value": 2.1}, {"measurement": "Nav1.7/Nav1.3", "setting": "hNav1.3; Nav1.7 over Nav1.3", "value": 1.0}, {"measurement": "Nav1.4/Nav1.7", "setting": "hNav1.7", "value": 2.2}, {"measurement": "Nav1.4/Nav1.7", "setting": "hNav1.7; Nav1.4 over Nav1.7", "value": 2.2}]}]}
